# This is one part of the list.
# B1: PX14375C-bth-509-28-509 (Bacteroides thetaiotaomicron) (protein)
# chain: RSPQGQFTEDDNPNALVNGKIYNVYTMMRSFDITAGTPAIAIHYLRSEDSEKGSIPSDGSDVAEMYDDFLYTPTNGLLGSYWGKNYAIIYQCNDILDAIAEKETAGQTETEDIINKGEASFFRAYCYFNLVRAFGEVPLVTYKINDASEANIPKTTADKIYEQIDTDLKTAEESLPETWSTEYTGRLTWGAARSLHARTYMMRSDWDNMYKASTDVINKGLYNLKTPYNEIFTDDGENSGGSIFELQCTATAALPQSDVIGSQFCEVQGVRGAGQWDLGWGWHMATQLMADAYETGDPRKNATLLYFRKTDDEPITPENTNEPYGESPISPAMGAYFNKKAYTDPALRKEYTNKGFWVNIRLIRYSDVVLMAAEAANEKNIPGEAVDYLEMVRARARGTNTNILPKITTNDQGELREAIRHERRVELGLEPDRFYDLVRWGIASEVLHAAGKVNYQDKNALLPLPQSEIDKSKGVLVQNPDY
# Tests used:
# Assay in all cases: glycan array binding signal (z-score within array); higher = stronger binding
# Conditions in all cases: glycan notation: IUPAC condensed, linker removed
# Glc(b1-6)Glc = biological target: Glc(b1-6)Glc
# Summary of the method: (§1)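 From the Consortium for Functional Glycomics database, 3228 arrays were curated, keeping only those whose protein sequence was available. Binding is given as a within-array Z-score averaged across arrays sharing a protein sequence and across linkers. Negative Z-scores can be read as non-binding.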
# GlcA(b1-3)Gal = biological target: GlcA(b1-3)Gal
# Summary of the method: as §1
# GlcA(b1-3)GlcNAc = biological target: GlcA(b1-3)GlcNAc
# Summary of the method: as §1
# GlcA(b1-6)Gal = biological target: GlcA(b1-6)Gal
# Summary of the method: as §1
# [1] = biological target: GlcA3S(b1-3)Gal(b1-4)GlcNAc(b1-2)Man
# Summary of the method: as §1
# [2] = biological target: GlcA3S(b1-3)Gal(b1-4)GlcNAc(b1-3)Gal(b1-4)Glc
# Summary of the method: as §1
# [3] = biological target: GlcNAc(a1-3)Gal(b1-4)GlcNAc
# Summary of the method: as §1
# [4] = biological target: GlcNAc(a1-4)Gal(b1-3)GlcNAc
# Summary of the method: as §1
# [5] = biological target: GlcNAc(a1-4)Gal(b1-4)GalNAc
# Summary of the method: as §1
# [6] = biological target: GlcNAc(a1-4)Gal(b1-4)GlcNAc
# Summary of the method: as §1
# [7] = biological target: GlcNAc(a1-4)Gal(b1-4)GlcNAc(b1-3)Gal(b1-4)Glc
# Summary of the method: as §1
# [8] = biological target: GlcNAc(a1-4)Gal(b1-4)GlcNAc(b1-3)Gal(b1-4)GlcNAc
# Summary of the method: as §1
# [9] = biological target: GlcNAc(a1-4)Gal(b1-4)GlcNAc(b1-3)Gal(b1-4)GlcNAc(b1-3)Gal(b1-4)GlcNAc
# Summary of the method: as §1
# [10] = biological target: GlcNAc(a1-4)Gal(b1-4)GlcNAc(b1-3)Gal(b1-4)[Fuc(a1-3)]GlcNAc(b1-3)Gal(b1-4)[Fuc(a1-3)]GlcNAc
# Summary of the method: as §1
# [11] = biological target: GlcNAc(a1-6)Gal(b1-4)GlcNAc
# Summary of the method: as §1
# [12] = biological target: GlcNAc(b1-2)Gal(b1-3)GalNAc
# Summary of the method: as §1
# [13] = biological target: GlcNAc(b1-2)Man(a1-3)[GlcNAc(b1-2)Man(a1-6)]Man(b1-4)GlcNAc(b1-4)GlcNAc
# Summary of the method: as §1
# [14] = biological target: GlcNAc(b1-2)Man(a1-3)[GlcNAc(b1-2)Man(a1-6)]Man(b1-4)GlcNAc(b1-4)[Fuc(a1-6)]GlcNAc
# Summary of the method: as §1
# [15] = biological target: GlcNAc(b1-2)Man(a1-3)[GlcNAc(b1-4)][GlcNAc(b1-2)Man(a1-6)]Man(b1-4)GlcNAc(b1-4)GlcNAc
# Summary of the method: as §1
# [16] = biological target: GlcNAc(b1-2)Man(a1-3)[GlcNAc(b1-4)][GlcNAc(b1-2)Man(a1-6)]Man(b1-4)GlcNAc(b1-4)[Fuc(a1-6)]GlcNAc
# Summary of the method: as §1
# [17] = biological target: GlcNAc(b1-2)[GlcNAc(b1-4)]Man(a1-3)[GlcNAc(b1-2)Man(a1-6)]Man(b1-4)GlcNAc(b1-4)GlcNAc
# Summary of the method: as §1
# [18] = biological target: GlcNAc(b1-2)[GlcNAc(b1-4)]Man(a1-3)[GlcNAc(b1-4)][GlcNAc(b1-2)Man(a1-6)]Man(b1-4)GlcNAc(b1-4)GlcNAc
# Summary of the method: as §1
# [19] = biological target: GlcNAc(b1-2)[GlcNAc(b1-4)]Man(a1-3)[GlcNAc(b1-4)][GlcNAc(b1-2)[GlcNAc(b1-6)]Man(a1-6)]Man(b1-4)GlcNAc(b1-4)GlcNAc
# Summary of the method: as §1
# [20] = biological target: GlcNAc(b1-2)[GlcNAc(b1-4)]Man(a1-3)[GlcNAc(b1-4)][GlcNAc(b1-2)[GlcNAc(b1-6)]Man(a1-6)]Man(b1-4)GlcNAc(b1-4)[Fuc(a1-6)]GlcNAc
# Summary of the method: as §1
# [21] = biological target: GlcNAc(b1-2)[GlcNAc(b1-6)]Man(a1-6)[GlcNAc(b1-2)Man(a1-3)]Man(b1-4)GlcNAc(b1-4)GlcNAc
# Summary of the method: as §1
# [22] = biological target: GlcNAc(b1-2)[GlcNAc(b1-6)]Man(a1-6)[GlcNAc(b1-2)Man(a1-3)]Man(b1-4)GlcNAc(b1-4)[Fuc(a1-6)]GlcNAc
# Summary of the method: as §1
# [23] = biological target: GlcNAc(b1-2)[GlcNAc(b1-6)]Man(a1-6)[GlcNAc(b1-4)][GlcNAc(b1-2)Man(a1-3)]Man(b1-4)GlcNAc(b1-4)GlcNAc
# Summary of the method: as §1
# GlcNAc(b1-3)Fuc = biological target: GlcNAc(b1-3)Fuc
# Summary of the method: as §1
# GlcNAc(b1-3)Gal = biological target: GlcNAc(b1-3)Gal
# Summary of the method: as §1
# [24] = biological target: GlcNAc(b1-3)Gal(b1-3)GalNAc
# Summary of the method: as §1
# GlcNAc(b1-3)Gal(b1-4)Glc = biological target: GlcNAc(b1-3)Gal(b1-4)Glc
# Summary of the method: as §1
# [25] = biological target: GlcNAc(b1-3)Gal(b1-4)GlcNAc
# Summary of the method: as §1
# [26] = biological target: GlcNAc(b1-3)Gal(b1-4)GlcNAc(b1-2)Man(a1-3)[GlcNAc(b1-3)Gal(b1-4)GlcNAc(b1-2)Man(a1-6)]Man(b1-4)GlcNAc(b1-4)GlcNAc
# Summary of the method: as §1
# [27] = biological target: GlcNAc(b1-3)Gal(b1-4)GlcNAc(b1-2)Man(a1-3)[GlcNAc(b1-3)Gal(b1-4)GlcNAc(b1-2)Man(a1-6)]Man(b1-4)GlcNAc(b1-4)[Fuc(a1-6)]GlcNAc
# Summary of the method: as §1
# [28] = biological target: GlcNAc(b1-3)Gal(b1-4)GlcNAc(b1-2)[GlcNAc(b1-3)Gal(b1-4)GlcNAc(b1-6)]Man(a1-6)[GlcNAc(b1-3)Gal(b1-4)GlcNAc(b1-2)Man(a1-3)]Man(b1-4)GlcNAc(b1-4)GlcNAc
# Summary of the method: as §1
# [29] = biological target: GlcNAc(b1-3)Gal(b1-4)GlcNAc(b1-3)Gal(b1-4)GlcNAc
# Summary of the method: as §1
# [30] = biological target: GlcNAc(b1-3)Gal(b1-4)GlcNAc(b1-3)Gal(b1-4)GlcNAc(b1-2)Man(a1-3)[GlcNAc(b1-3)Gal(b1-4)GlcNAc(b1-3)Gal(b1-4)GlcNAc(b1-2)Man(a1-6)]Man(b1-4)GlcNAc(b1-4)GlcNAc
# Summary of the method: as §1
binder,measurement,setting,value
B1,glycan array binding signal (z-score),Glc(b1-6)Glc,-0.146
same,glycan array binding signal (z-score),GlcA(b1-3)Gal,-0.407
same,glycan array binding signal (z-score),GlcA(b1-3)GlcNAc,-0.189
same,glycan array binding signal (z-score),GlcA(b1-6)Gal,-0.403
same,glycan array binding signal (z-score),[1],-0.295
same,glycan array binding signal (z-score),[2],-0.335
same,glycan array binding signal (z-score),[3],-0.468
same,glycan array binding signal (z-score),[4],-0.442
same,glycan array binding signal (z-score),[5],-0.497
same,glycan array binding signal (z-score),[6],-0.167
same,glycan array binding signal (z-score),[7],-0.093
same,glycan array binding signal (z-score),[8],-0.071
same,glycan array binding signal (z-score),[9],-0.456
same,glycan array binding signal (z-score),[10],-0.057
same,glycan array binding signal (z-score),[11],-0.256
same,glycan array binding signal (z-score),[12],-0.222
same,glycan array binding signal (z-score),[13],-0.306
same,glycan array binding signal (z-score),[14],-0.22
same,glycan array binding signal (z-score),[15],-0.21
same,glycan array binding signal (z-score),[16],-0.23
same,glycan array binding signal (z-score),[17],0.083
same,glycan array binding signal (z-score),[18],-0.359
same,glycan array binding signal (z-score),[19],-0.249
same,glycan array binding signal (z-score),[20],-0.189
same,glycan array binding signal (z-score),[21],0.222
same,glycan array binding signal (z-score),[22],0.211
same,glycan array binding signal (z-score),[23],-0.397
same,glycan array binding signal (z-score),GlcNAc(b1-3)Fuc,-0.313
same,glycan array binding signal (z-score),GlcNAc(b1-3)Gal,-0.084
same,glycan array binding signal (z-score),[24],-0.25
same,glycan array binding signal (z-score),GlcNAc(b1-3)Gal(b1-4)Glc,-0.267
same,glycan array binding signal (z-score),[25],-0.266
same,glycan array binding signal (z-score),[26],-0.185
same,glycan array binding signal (z-score),[27],-0.2
same,glycan array binding signal (z-score),[28],0.171
same,glycan array binding signal (z-score),[29],-0.131
same,glycan array binding signal (z-score),[30],3.19

# Source: the supplement of paper PMC8728848
